# Measured values: the supplement of paper PMC7726561
# Over roughly 1,400 sequences, “thermal melting temperature (Tm) of peptide-HLA complex” has its median near 60; the lowest 2% begin near 45. The list shows a part of the results.
# Target: HLA-B*07:02
# Assay: thermal melting temperature (Tm) of peptide-HLA complex; higher = more thermostable pHLA complex
# Conditions: C1R-B*07:02
# 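Further: cell lysates heated 10 min at 37–73 °C, remaining pHLA pulled down with pan-class I antibody, peptides quantified by DIA-MS versus 37 °C, Tm where half the complex is lost.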
row,Sequence,thermal melting temperature [°C]
1,SPFLKGFL,62.6
2,VPLPRLLEV,61.8
3,LPRAPGQAP,57.1
4,RPIESPGGSVL,45.3
5,SPRPAPLLL,62.3
6,HPRKGFPGSL,45
7,SPSFPRPSL,61.4
8,SPQDFGLVL,60.7
9,IPYKPNYSL,60.3
10,GPRAVFVLL,62.4
11,APRALLQDVL,61.9
12,APIDRVGQTI,53.3
13,LPKPPGRGV,59.2
14,SPRLSQTFLQL,61
15,KPYTPVSGSLL,58.3
16,KPYQGNPTF,57.5
17,APEVAKSWAAL,62
18,APAGRKVGL,61.2
19,SPTYRALLL,62

row,Sequence,thermal melting temperature [°C]
1,KPSSFTTSF,50.9
2,VPFERPAVI,61.2
3,VPRAILVDL,62.4
4,RPADVIFATV,59
5,LPRGSSPSVL,59.5
6,VPEEARPAL,58.4
7,MPQSGTGVSV,49.5
8,FPSEPNRLL,57.6
9,RPDPAGHLTL,56
10,LPSPFLRAL,60.7
11,HPRVGDLIL,58.5
12,LPSGQRAGFL,60.2
13,KPSPIYGGL,53.7
14,SPAPKQEL,55
15,QPSFPTPQL,62.1
16,RPRPGNILLQL,55.6
17,TPKMPGQSV,56.1
18,APIIRVGGAL,59.9
19,LPRAFLQSL,62.4

row,Sequence,thermal melting temperature [°C]
1,RPAIVQNITF,60.3
2,KPWLRALQL,59.7
3,SPVLRNFTF,41.7
4,APPVRPQNSL,55.2
5,RPASPPVVKL,59
6,RPLPGALGV,59
7,LPAPSWRAL,62.9
8,RPDSPAHVL,58.7
9,SPQLGRAVQLL,62.6
10,APRAGQPLQL,59.4
11,FPHLREEIL,51.6
12,LPRGLAGAL,63
13,FPIHVQTSL,60.9
14,YPLPAVKVSM,59.8
15,TPRPTAAEL,59
16,QPATPGLGM,57
17,NPTQVGTAL,57.1
18,YLRDTLLAL,53.6
